± gives the standard deviation of the averaged measurements. This is one part of the list.
Each sequence was assayed on PfAP2-LT AP2 domain (GST-tagged) (assay: gcPBM binding intensity (ln(normalized median fluorescence intensity)); higher = stronger DNA binding).
Procedure, shortened: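 Binding intensity is defined as the maximum Masliner-normalised natural-log median intensity across replicate spots for either probe orientation. It was measured on an Agilent 4 × 180k array of primer-extended double-stranded 36-bp intergenic genomic probes and negative controls, to which GST-tagged P. falciparum DNA-binding domains made in E. coli were applied for 1 h in 1× PBS with 1% milk, 0.2 mg/ml BSA, 0.5% salmon testes DNA and 0.03% Triton X-100. Detection was by Alexa488 anti-GST antibody and scanning at 488 nm.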

Row | Sequence | gcPBM binding intensity (ln)
1 | TACACCAGTTGTGGGAGTACACAAAAAAAGGGAAAA [XGTACX_site6047] | 9.1 ± 0.64
2 | CTTTATCTTTTTCATTGTACTTTATTTTAAAATTAA [XGTACX_site4858] | 8.64 ± 0.5
3 | AATATCATAAAATAAAGTACAAATATATATTGAAAA [XGTACX_site8813] | 8.94 ± 0.43
4 | TGCAGTCTGGAGAAAAGTACACAGTATCTGGTAGCT [XGTACX_site2013] | 8.79 ± 0.56
5 | AATAGATTTTTATGCGTGCACACATTTAACAAAAAA | 8.87 ± 0.42
6 | GTGCTAGTATTTAATACACACAATTGAAGTTCCTGA [CACACA_site1452] | 8.82 ± 0.35
7 | TAACATCCTAATGTCACACATGTTATAGGTTTAAAT [CACACA_site5649] | 8.64 ± 0.4
8 | TTCTGGTGTAAATGCACACAGAAGAAGAAAAAAAAA [CACACA_site3685] | 8.87 ± 0.47
9 | TAATTTAATTTTCCAAGAAAAAAAAAAGAAAAAAGA [CACACA_negctrl_site1703] | 8.32 ± 0.45
10 | TTTGAAATATTTATTTGTACATATACACACTTAAAT [XGTACX_site8321] | 8.84 ± 0.45
11 | ATATTATTTTGTCAGGGTACATTCCATAAGTTTTTT [XGTACX_site6855] | 8.78 ± 0.54
12 | AAAAAAAAAAAAAAAAAAACCACAAACAAATATGAA [TGCATGCA_negctrl_site34] | 8.72 ± 0.47
13 | CCTTCATCATATTTAACACACAGAGAAAAAGCGGAT [CACACA_site274] | 9 ± 0.37
14 | TCCTTTCTTTTTTAAACATGCATATGTAATATAAAT [TGCATGCA_site979] | 8.47 ± 0.44
15 | TTTACATACAAATTAACACACATATAGAAAAGAGAA [CACACA_site1889] | 8.96 ± 0.5
16 | CTCGTATATATAATACGTACATATTATATATATATA [XGTACX_site1704] | 8.85 ± 0.2
17 | AAAAAAAATAAACACACACACATACCCATAAATATA [CACACA_site5980] | 10 ± 0.13
18 | ATAATATAATAATACACACTCATTATATATATAAAG [CACACA_site3956] | 8.82 ± 0.43
19 | TTTTAAAATATATTTGTATATATATATATATATATA [XGTACX_negctrl_site536] | 9.125 ± 0.021
20 | GCTTGTTCAAAAATGAGTACATACAAATAGTTGTAT [XGTACX_site1770] | 8.74 ± 0.38
21 | TATTTATGTAGATACACACCCATGTTATATGGAGGT [CACACA_site3461] | 8.84 ± 0.41
22 | TTTCTTTTTTTTTTTATTTACCTGAATTATGTATTA [TGCATGCA_negctrl_site345] | 8.66 ± 0.61
23 | TTTTTTACAAATGATATCATTTCTTTAAATATTAAA [TGCATGCA_negctrl_site279] | 8.32 ± 0.52

Row | Sequence | gcPBM binding intensity (ln)
24 | CTATAAATGAATGTTTGTACTTAATAATAAAAGAAA [XGTACX_site3170] | 8.46 ± 0.52
25 | GCACACACAAAAAAAGCATGCATACTAGCTATTTTT [TGCATGCA_site18] | 9.37 ± 0.42
26 | TATTTTTTTCATAACAGTACAATAATATATATTTTT [XGTACX_site5739] | 8.47 ± 0.52
27 | AATCAAAAAAAATGTTGTACGCCTAATTATAATTAA [XGTACX_site8906] | 8.68 ± 0.46
28 | AAAAAACACCCATACACACACACACCGATATATATA [CACACA_site5808] | 10.2 ± 0.24
29 | TATTCGTGCAATAATAGTACACTTATAAATTATTCA [XGTACX_site8993] | 8.52 ± 0.45
30 | AATGAAATAAATAAGGGTACACATAAATATATATAT [XGTACX_site7006] | 9.04 ± 0.43
31 | AAATTATTATGTATTTGTACACATAAGAATATAAAA [XGTACX_site6841] | 8.7 ± 0.32
32 | TATAAATAATGTTAAACACACATACCGATATATAAT [CACACA_site5499] | 9.02 ± 0.4
33 | AATGGGGAAGGTTCTACACACAACGCAAATGCCTTA [CACACA_site2758] | 9.15 ± 0.28
34 | AGAGAAAGAAAGAAATGTACAAATACCTACACACAT [XGTACX_site3140] | 9.26 ± 0.31
35 | TCAGTTAATGTATATGTACACACGGTGAGTATATAT [CACACA_site3346] | 9.11 ± 0.47
36 | ATCCACAAAATAGGATGTACATATAAAATAAATAAA [XGTACX_site5362] | 8.9 ± 0.62
37 | TATGGAATAATACGCGTACACACATATATATATTAA [CACACA_site132] | 9.18 ± 0.38
38 | CATTTTTTATAATAATGTACATGTATTAAAAAAAAA [XGTACX_site6390] | 8.29 ± 0.48
39 | TTTATAAGAATTACTAGTACATATAAGGAATTATAT [XGTACX_site3953] | 8.49 ± 0.42
40 | TTATAAATTTAAAGTAGTACTATACTACTATTTTAT [XGTACX_site3038] | 8.54 ± 0.43
41 | ACATATAAAATATATACACACATATAAATACATTAA [CACACA_site3867] | 9.09 ± 0.38
42 | TATATATCAAAAATATGTACACAGAAATATATATTA [XGTACX_site6997] | 8.79 ± 0.38
43 | TTGCAATAATGTTGCACACTAAATAGTCATATATAA [CACACA_site263] | 8.75 ± 0.38
44 | ATATAATATTACAAATGTACTTTAAAAAATTAGGAG [XGTACX_site3897] | 8.55 ± 0.44
45 | TTGTTTCAAGAAAAAATCGAAAAACATAGAAAAAAA [XGTACX_negctrl_site615] | 8.44 ± 0.46

From the supplement of paper PMC11417369
